Experimental data from the RNAGym collection of RNA variant scans (doi:10.1073/pnas.2313332121).
Variants at the background level are over-represented here.

B1: TPR 5TU (parent)
chain: GGAUCUUCUCGAUCUAACAAAAAAGACAAAUCUGCCACAAAGCUUGAGAGCAUCUUCGGAUGCAGAGGCGGCAGCCUUCGGUGGCGCGAUAGCGCCAACGUUCUCAACUAUGACACGCAAAACGCGUGCUCCGUUGAAUGGAGUUUAUCAUG

Variants of: B1
Assay: polymerase ribozyme fitness, log enrichment relative to wild type (log ratio); higher = more active; in vitro selection for triplet polymerase activity
Procedure, shortened: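 Fitness measures genotype enrichment against wild-type enrichment on a logarithmic scale, with inverse-variance-weighted averaging of replicates. The logarithm is base 2, and genotypes were kept only with ≥10 input reads and ≥1 read per output in Illumina sequencing. The sequenced libraries came from one triplicate in vitro selection round, including frozen incubation at −7 °C, of PCR-built, transcribed mutant libraries of each subunit of a heterodimeric triplet polymerase ribozyme.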

Variant | polymerase ribozyme fitness (log ratio)
GGAUCUUCACGACCUAACAAAAAAGACAAAUCUGCCACAAAGCUUGAGAGCAUCUUCGGAUGCAGAGGCGGCAGCCUUCGGUGGCGUGAUAGCGCCAACGUUCUCAACUAUGACACGCAAAACGCGUGCUCCGUUGAAGGGAGUUUAGCAUG [U9A U13C C87U U139G U148G] | ≤ -4.2
GGAUCUUCCCGAUCUUACUAAAAAGACAAAACUGUCACAAAGCUUGAGUGCAUCUUCGGAUGCAGAGGCGGCAGCCUUCGGUGGCGCGAUAGCGCCAACGUUCUCAACUAUGACACGCAAAACGCGUGCUCCGUUGAAUGGAGUUUAUCAUG [U9C A16U A19U U31A C35U A49U] | ≤ -4.2
GGAUCUUCCCGAUCUUACAAGAAAGACAAAUCUGCCACAAAGCUUGAGAGCAUCUUCGGAUGCAGAGGCCGCAGCCUUCGGUGGCGCGAUAUCGCCAACGUUCUCAACUAUGACACGCAAAACGCGUGCUCCGUUGAAUGGAUUGUAUCAUG [U9C A16U A21G G70C G92U G143U U145G] | ≤ -4.2
GGAUCUUCCCGGUCUAACAAUAAAGACAAAUCUGCCACAAAUCUUGAGAGGAACUUCGGAUGCAGAGGCGGCAGCCUUCGGUGGCGCGAUAGCGCAAACGUUCUCAACUAUGACACGCAAAACGCGUGCUCCGUUGAAUGGAGUUUAUCAUG [U9C A12G A21U G42U C51G U53A C96A] | ≤ -4.2
GGAUCUUCACGAUCUAACAAAAAAGACAAAGCUGCCACAAAGCUUGAGAGCAGCUUCGGAUGCAGAGGCGGCAGCCUUCGGUGGCGCAAUAGCGCCAACGUUCUCAACUAUGACACGCAAAACGCUUGCUCCGUUGAAUGGAGUUUAUCCUG [U9A U31G U53G G88A G126U A150C] | ≤ -4.2
GGAUCUUCACGAUCUAACAAAAAAGACAAAUCUACCACAAAGCUUGAGAGCAUCUUAGGAUGCAGAGGCGGCAGCCUUCGGUGGAGCGAUUGCGCCAACGUUCUCAACUAUGACACGCAAAACGCGUGCUCCGUUGAAUGGAGUUUAUCAUG [U9A G34A C57A C85A A91U] | ≤ -4.2
GGAUCUUCACGAUCCAACAAAAAAGACAAAUCUGUCACAAAGCUUGAGAGCAUCUUCGGAUGCAGAGGCGAUAGCCGUCGGUGGCGAGAUAGCGCCAACGUUCUCAACUAUGACACGCUAAACCCGUGCUCCGUUGAAUGGAGUUUAUCAUG [U9A U15C C35U G71A C72U U77G C87A A119U G124C] | ≤ -4.2
GGAUCUUCCCGAUCUAACAAUAAAGACAAAUCUGCCACAAAGCUUGAAAGCAUCUUCGGAUGCAGAGGCGGCAGCCUUCGGUGGCGCGAUUGCGCCAAUGUUCUCAACUAUGACACGCAAAACGCGUGCUCCGUUGAAUGGAGUUUAUCAUG [U9C A21U G48A A91U C99U] | ≤ -4.2
GGAUCUUCCCGAUAUAACAAAAAAGAAAAAUCUGCCACACAGCUAGAGAGCAUCUUCGGAUGCAGAGGCGGCAGCCUUCGGUGGCGCGAUAGGGCCAACGUUCUCAACUAUGACACGCAGAACGCGUGCUCCGUUGAAUGGAGUUUAUCAUG [U9C C14A C27A A40C U45A C93G A120G] | ≤ -4.2
GGAUCUUCACGAUCGAACAAAAAAGACAAAUCUGCCACAAUGCUUGAGAUCAUCUUCGGAUGCAGAGGGAGCAGCCUUCGGUGGCGCGAUAGCGCCAACGUUCUCAAGUAUGACACGCAAAACGCGUGCUCCGUUGAAUGGAGUUUAUCAUG [U9A U15G A41U G50U C69G G70A C108G] | ≤ -4.2
GGAUCUUCCCGAUCUAACAAAAAAGACUACUCUGCCACAAAGCUUGAGAGCAUCUUCGGAAGCAGAGGCGGCAGCCUUCGGUGGCGCAAUUACGCCAACGUUCUCAACUAUGACACGCUAAACGCGUGCUCCGUUGAAUGGAGUUUAUCAUG [U9C A28U A30C U61A G88A A91U G92A A119U] | ≤ -4.2
GGAUCUUCCCGAUCUAAGAAAAACGACAAAUCUGCCACAAAGCUUGAGAGCAUCUUCGGAUGCAGAGGCGGCAGCCUUCGGUGGCGCGAUAGCGCCAACGUUCUCAACUAUGACACGCAAAACGCGUGCUCCGUUGAAUGGAGUUUAUCAUG [U9C C18G A24C] | ≤ -4.2
GGAUCUUCACGAUCUAACAAAAAAGACAAAUCUGCCACAAAGCUUGAGAGCAUCUUCGGAUGCAGAGGCGGCAGCCUUCGGUGGCGCGAUAAGGCCAACGUUCUCAACUAUGACACGCAAAACGCGUGCUCCGUUGAAUGGAGUUAAUCGUG [U9A G92A C93G U146A A150G] | ≤ -4.2
GGAUCUUCCCGAUCUAACAAAAAAGACAAAUCUGCCACAAAGCUUGAGAGCAUCUUCGGAUGCAGAGGCGGCAGCCUUCGGUGGCGCGAUAGAGCCAACGUUCUCAACUAUGACACGCAAAACGCGUGCUCCAUUGAAUGUAGUUUAUCAUG [U9C C93A G133A G141U] | ≤ -4.2
GGAUCUUCACGAUCUAACAAAAAAGACAAAUCUGCCACAAAGCUUGAGAGCAUCUUCGGAUGCAGAGGCGGCAGCCGCCGGUGGCGCGAUAUCGCCAACGUUCUCAACUAUGACACGCAAAACGCGUGCUCCGUUGAAUGGGGUUUAUCAUG [U9A U77G U78C G92U A142G] | ≤ -4.2
GGAUCUUCCCGAUCUAACAAAAAAGACCAAUCUGCAACAAAGCUUGAGAGCAUCUUCGGAUGCAGAGGCGGCAGCCUUCGGUGGCGUGAUAGCGCCAACGUUCUCAACUAUGACAUGCAAAACGCGUGCUCCGUUGAAUGGAGUUUAUCAUG [U9C A28C C36A C87U C116U] | ≤ -4.2
GGAUCUUCACGAUCUAACAAAAAAGACAAAUCUGCCACAAAACUUGAGAGCAUCUUCGAGUGCAGGGGCGGCAGCCUUCGGUGGCGCGAUAGCGCCAACGUUGUGCACUAUGACACGCAAAACGCGUGCUCCGUUGAAUGGAGUUUAUCAUA [U9A G42A G59A A60G A66G C103G C105G A106C G152A] | ≤ -4.2
GGAUCUUCCCGAUCUAACAACAAAAACAAAUCUGCCACAAAGCUUGAGAGCAUCUUCGGAUGCAGAGGCGGCAGCCUUCGGUGACGCGAUAGCGCCAACGUUCUCAACCAUGACACGCAAAACGCGUGCUCCGUUGAAUGAAGUUUAUCAUG [U9C A21C G25A G84A U109C G141A] | ≤ -4.2
GGAUCUUCCCGAUCUCACAAAAAAGACAAAUCUGCCACAAAGCGUGAGAACAUCUUCGGAUGCAGAGGCGGCAGACUUCGAUGGCGCGAUAGCGCCAACGUUCUCAACUAUGACACGCAAAACGCGUGCUCCGUUGAAUGGAGUUUAUCAUG [U9C A16C U44G G50A C75A G81A] | ≤ -4.2
